The chains are these.
B1: PhoQ; a variant is named by its letters at X, in order, P23837 (parent)
chain: MKKLLRLFFPLSLRVRFLLATAAVVLVLSLAYGMVALIGYSVSFDKTTFRLLRGESNLFYTLAKWENNKLHVELPENIDKQSPTMTLIYDENGQLLWAQRDVPWLMKMIQPDWLKSNGFHEIEADVNDTSLLLSGDHSIQQQLQEVREDDDDAEMTHSVAVNVYPATSRMPKLTIVVVDTIPVELKSSYMVWSWFIYVLSANLLLVIPLLWVAAWWSLRPIEALAKEVRELEEHNRELLNPATTRELTSLVRNLNRLLKSERERYDKYRTTLTDLTHSLKTPLXXLQXXLRSLRSEKMSVSDAEPVMLEQISRISQQIGYYLHRASMRGGTLLSRELHPVAPLLDNLTSALNKVYQRKGVNISLDISPEISFVGEQNDFVEVMGNVLDNACKYCLEFVEISARQTDEHLYIVVEDDGPGIPLSKREVIFDRGQRVDTLRPGQGVGLAVAREITEQYEGKIVAGESMLGGARMEVIFGRQHSAPKDE

The other results are listed elsewhere or left out.

In the experiment the parent is B1. In words: enrichment ratio after two sorts for PhoP signalling (ratio (wild type AVST 3.29)); higher = more functional. The following applies: with PhoP (E. coli).
Regarding QFCR, the enrichment ratio was no more than 0.25. Turning to IVCL, the enrichment ratio is no more than 0.25. Turning to PVNQ, the enrichment ratio is no more than 0.25.

RNCS: the enrichment ratio was no more than 0.25. Regarding AGPH, the enrichment ratio was no more than 0.25.

Regarding VRGS, the enrichment ratio is no more than 0.25.

Consider WVHV, for which the enrichment ratio was no more than 0.25. On to DPID, for which the enrichment ratio was no more than 0.25. Consider EWLF, for which the enrichment ratio was no more than 0.25. For the variant TNPD, the enrichment ratio was no more than 0.25.

For the variant RIIN, the enrichment ratio was no more than 0.25. RARC: the enrichment ratio is no more than 0.25.

With VCWS, the enrichment ratio is no more than 0.25. Regarding GGRC, the enrichment ratio was no more than 0.25.

As for NIMP, the enrichment ratio is no more than 0.25. QRGT: the enrichment ratio is no more than 0.25. Consider VVCE, for which the enrichment ratio was no more than 0.25. The same measure for FFWV: no more than 0.25. Take NECN: the enrichment ratio was no more than 0.25. Take VVQL: the enrichment ratio was no more than 0.25. As for DTIG, the enrichment ratio is no more than 0.25. With ESTT, the enrichment ratio is no more than 0.25. Regarding VLQW, the enrichment ratio was no more than 0.25. The same measure for VVIL: no more than 0.25; for IERH: no more than 0.25. PLYV: the enrichment ratio is no more than 0.25. As for YFNN, the figure is no more than 0.25; as for TSAC, 10.9.

As for KNPS, the enrichment ratio was no more than 0.25.

As for KMLS, the enrichment ratio was no more than 0.25. For DYSA, the enrichment ratio is no more than 0.25. The same measure for EENG: no more than 0.25; for VTST: no more than 0.25; for PYMT: no more than 0.25.

For the variant QVFR, the enrichment ratio is no more than 0.25. On to FFCL, for which the enrichment ratio was no more than 0.25. DCLA: the enrichment ratio was no more than 0.25.

For the variant RNPW, the enrichment ratio was no more than 0.25. Turning to LMTV, the enrichment ratio is no more than 0.25.

Consider HPAM, for which the enrichment ratio is no more than 0.25. With LYFY, the enrichment ratio was no more than 0.25. As for YRNE, the enrichment ratio is no more than 0.25. As for DYEG, the enrichment ratio is no more than 0.25.

For WNHG, the enrichment ratio was no more than 0.25. As for ILRG, the figure is no more than 0.25.

Consider YDNP, for which the enrichment ratio is no more than 0.25. HRPL: the enrichment ratio was no more than 0.25. As for AEEF, the enrichment ratio was no more than 0.25. As to FHIL, the enrichment ratio is no more than 0.25. Regarding YKYM, the enrichment ratio is no more than 0.25.

On to WNSQ, for which the enrichment ratio is no more than 0.25.

Consider MQIS, for which the enrichment ratio was no more than 0.25. The same measure for DPLM: no more than 0.25; for FAGF: no more than 0.25. In the case of FNST, the enrichment ratio was no more than 0.25.

As to PWPI, the enrichment ratio is no more than 0.25. The same measure for LDHL: no more than 0.25; for KAFA: no more than 0.25; for TCFW: no more than 0.25. As to FYAS, the enrichment ratio is no more than 0.25. Regarding SPWW, the enrichment ratio was no more than 0.25. As to FTLW, the enrichment ratio is no more than 0.25. For NVAL, the enrichment ratio was no more than 0.25. Consider IMMV, for which the enrichment ratio was no more than 0.25. For WMAN, the enrichment ratio was no more than 0.25. As for GVLC, the figure is 5.21.

For HNVM, the enrichment ratio was no more than 0.25. As to AWRA, the enrichment ratio is no more than 0.25. Take FNYE: the enrichment ratio was no more than 0.25. Take HAHN: the enrichment ratio is no more than 0.25.

On to FNCW, for which the enrichment ratio was no more than 0.25. HMDP: the enrichment ratio was no more than 0.25. The same measure for TWDV: no more than 0.25; for LVWM: no more than 0.25; for YPGC: no more than 0.25. With QYLE, the enrichment ratio is no more than 0.25.

For the variant KAWE, the enrichment ratio is no more than 0.25. The same measure for FMCD: no more than 0.25; for QAHV: no more than 0.25. Turning to TRAE, the enrichment ratio was no more than 0.25. The same measure for GCNT: no more than 0.25. For the variant KRAT, the enrichment ratio was no more than 0.25. Regarding WDLK, the enrichment ratio is no more than 0.25.

Take PYMN: the enrichment ratio was no more than 0.25. FQTT: the enrichment ratio was no more than 0.25. On to QSLN, for which the enrichment ratio is no more than 0.25.

Turning to AEPH, the enrichment ratio was no more than 0.25. Turning to LSTI, the enrichment ratio is no more than 0.25.

With ALRW, the enrichment ratio is no more than 0.25. For PERA, the enrichment ratio is no more than 0.25. Regarding GMTD, the enrichment ratio was no more than 0.25. The same measure for LLGM: no more than 0.25. On to RPQF, for which the enrichment ratio was no more than 0.25. As for FAGN, the enrichment ratio is no more than 0.25. Take WKKV: the enrichment ratio is no more than 0.25. Regarding HVSG, the enrichment ratio is no more than 0.25. As for HYAR, the figure is no more than 0.25. As to HMIN, the enrichment ratio was no more than 0.25.

KHYA: the enrichment ratio is no more than 0.25.

For the variant WFEY, the enrichment ratio is no more than 0.25. As for EYNM, the figure is no more than 0.25; as for WYQY, no more than 0.25; as for KTHR, no more than 0.25. For the variant KCRL, the enrichment ratio was no more than 0.25.

For the variant PKIR, the enrichment ratio was no more than 0.25. PNDQ: the enrichment ratio was no more than 0.25. As to QYDH, the enrichment ratio came out at 0.815. Turning to YLYY, the enrichment ratio is no more than 0.25. As to VWNI, the enrichment ratio was no more than 0.25. With PLAF, the enrichment ratio was no more than 0.25. Regarding LLDN, the enrichment ratio is no more than 0.25. Regarding NNFA, the enrichment ratio was no more than 0.25. KIKW: the enrichment ratio is no more than 0.25. In the case of VENP, the enrichment ratio was no more than 0.25. Take EMVE: the enrichment ratio was no more than 0.25. Turning to LRNH, the enrichment ratio was no more than 0.25. Consider TPCT, for which the enrichment ratio was no more than 0.25. On to MHEG, for which the enrichment ratio is no more than 0.25. As for FEKL, the figure is no more than 0.25; as for YICV, 4.39; as for VLWE, no more than 0.25.

As to DYST, the enrichment ratio was no more than 0.25. As to MGVW, the enrichment ratio was no more than 0.25. Consider NWEG, for which the enrichment ratio was no more than 0.25. In the case of QQFI, the enrichment ratio turned out to be 3.9. As for AWFP, the figure is no more than 0.25. Regarding GRHV, the enrichment ratio is no more than 0.25. As for THVS, the enrichment ratio was no more than 0.25.

Turning to GYEL, the enrichment ratio was no more than 0.25. As to MDLY, the enrichment ratio is no more than 0.25. Regarding SSKY, the enrichment ratio is no more than 0.25. For the variant PKPI, the enrichment ratio is no more than 0.25. Consider SCAT, for which the enrichment ratio was 16.1. As for YINK, the figure is no more than 0.25; as for NKCQ, no more than 0.25.

Regarding WSSQ, the enrichment ratio is no more than 0.25.

For HVKS, the enrichment ratio was no more than 0.25. With HCQL, the enrichment ratio was no more than 0.25. As for KISN, the figure is no more than 0.25; as for IKRW, 0.863; as for HQFY, no more than 0.25. The same measure for SREI: no more than 0.25. As for KLIT, the enrichment ratio was no more than 0.25. As for VYGY, the enrichment ratio was no more than 0.25. The same measure for IWNF: no more than 0.25.

Regarding DKAI, the enrichment ratio is no more than 0.25. Consider APGI, for which the enrichment ratio was no more than 0.25. YVPC: the enrichment ratio was no more than 0.25. For the variant QMWC, the enrichment ratio was no more than 0.25. KSPQ: the enrichment ratio is no more than 0.25. As for DDSF, the figure is no more than 0.25; as for ARVV, 0.976; as for EFNW, no more than 0.25.

The values are drawn from a collection of fitness landscapes (doi:10.1126/science.1257360).
